In PubChem BioAssay AID485294 (National Center for Advancing Translational Sciences (NCATS), 2010):
Screen size: about 370,000 compounds; about 150 (0.041%) were called active. Inconclusive results, whose numbers are uncertain, are shown with a selection of clear calls. The call rests on the fitted dose curve; in most records, active means well fitted inhibition curve with a large enough effect; inconclusive means small, poorly fitted or top-dose-only effect; inactive means flat fitted curve, though single readings scatter. No potency is given beside an inconclusive call; the fits are too rough.

Biological target: Beta-lactamase (Escherichia coli (strain K12)) (UniProt P00811)
Assay: qHTS Inhibitors of AmpC Beta-Lactamase (assay with detergent); further: nearly all actives have a fitted effect of over 25% in size
Details: AmpC hydrolysis of nitrocefin, absorbance 480 nm, 0.01% Triton; series mostly up to 114 µM
Procedure, shortened: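 AmpC (5.3 nM in the dispensed reagent) in 20 mM phosphate pH 7.0 with 0.01% (detergent screen) or 0.0001% Triton X-100 was preincubated with compounds for 15 min at room temperature. Nitrocefin was then added from an 800 uM solution, and hydrolysis was followed at 480 nm.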
Potency means the concentration at half of the fitted maximal effect; tags describe the fitted curve by direction and shape.

UniProt P00811, sequence (P00811 whole entry, looked up): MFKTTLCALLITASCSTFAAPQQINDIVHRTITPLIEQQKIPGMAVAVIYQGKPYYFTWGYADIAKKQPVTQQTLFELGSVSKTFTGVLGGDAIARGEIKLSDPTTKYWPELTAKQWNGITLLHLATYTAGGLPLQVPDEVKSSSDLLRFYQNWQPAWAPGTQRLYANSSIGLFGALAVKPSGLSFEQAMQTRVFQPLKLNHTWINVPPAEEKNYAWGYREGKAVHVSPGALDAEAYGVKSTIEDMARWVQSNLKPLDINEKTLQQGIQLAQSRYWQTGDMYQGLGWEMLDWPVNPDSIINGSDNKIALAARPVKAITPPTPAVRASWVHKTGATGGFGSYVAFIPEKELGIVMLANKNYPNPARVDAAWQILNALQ

SMILES	Potency
COc1ccc(/C=N/NC(=O)CCc2ccccc2)cc1O	inconclusive [inhibitor, partial curve]
O=C(Nc1cccc(-c2ccc(N3CCOCC3)nn2)c1)c1ccc(Cl)cc1	inconclusive [inhibitor, full curve, poor fit]
COC(=O)c1c(C#N)c(N)nc2c1CCCC2	inactive
CN(C)CCCNC(=O)/C(=C\c1ccc(-c2ccc(Br)cc2)o1)NC(=O)c1ccccc1	inconclusive [inhibitor, full curve, poor fit]
CN(C)C(CNC(=O)c1ccc(S(=O)(=O)Nc2cccc(C(F)(F)F)c2)cc1)c1ccco1 (stereo unspecified)	inconclusive [inhibitor, full curve, poor fit]
NC(=O)c1ccc(-n2nnnc2Oc2ccccc2C(=O)N2CCOCC2)cc1	inconclusive [inhibitor, partial curve, poor fit]
Cc1ccc(O)c(C=Nc2ccc3[nH]ncc3c2)c1	inconclusive [inhibitor, full curve, poor fit]
O=C1CNC(=S)N1Cc1ccc(F)cc1	inconclusive [inhibitor, full curve]
O=C(Cc1cccs1)Nc1nnc(SCC(=O)NC2CCCCC2)s1	inconclusive [inhibitor, full curve, poor fit]
COc1ccc(-n2c(O)c(/C=C/C=Nc3ccccc3)c(=O)[nH]c2=O)cc1	inconclusive [inhibitor, full curve, poor fit]
COC(=O)c1cc(NC(=O)c2cc(C(C)(C)C)nn2Cc2ccc(F)cc2)ccc1N1CCOCC1	inactive
Cc1nc2ccccc2n1CC(=O)OCC(=O)NCCc1ccccc1	inconclusive [inhibitor, full curve, poor fit]
Cc1cccn2c(=O)nc(SCC(=O)N3CCCC3)nc12	inconclusive [inhibitor, full curve, poor fit]
CC(=O)c1ccc(OCc2cc(C(=O)N3CCN(c4ccccc4)CC3C)no2)cc1 (stereo unspecified)	inconclusive [inhibitor, full curve, poor fit]
COc1ccc(C(CC(=O)Nc2cc(Cl)c(OC)cc2OC)N2Cc3ccccc3C2=O)cc1 (stereo unspecified)	inactive
O=C1NC(=O)C2(Cc3ccccc3N3CCCC32)C(=O)N1Cc1ccccc1 (stereo unspecified)	inconclusive [inhibitor, partial curve, poor fit]
Cc1cc(F)ccc1NC(=O)c1cc(S(=O)(=O)N2CCOCC2)cn1C	inconclusive [inhibitor, partial curve, poor fit]
O=C(O)Cc1sc(Nc2cccc3ccccc23)nc1-c1ccc(Cl)cc1	inactive
C=CCSC(=S)Nc1c(C)n(C)n(-c2ccccc2)c1=O	inconclusive [inhibitor, partial curve, poor fit]
O=C(Nc1ccccc1)Nc1ccc(Cl)c(S(=O)(=O)N2CCOCC2)c1	inactive
Cc1cccc2sc(NC(=O)CCNS(=O)(=O)c3cccc4nonc34)nc12	inactive
COc1ccc(NC(=O)C(c2ccccc2)N(C)C(=O)/C=C\c2ccc3c(c2)OCO3)cc1 (stereo unspecified)	inconclusive [inhibitor, full curve, poor fit]

SMILES	Potency
O=C(NC1CCCCC1)C(c1ccc(Cl)cc1)N1CCC2(CC1)OCCO2 (stereo unspecified)	inconclusive [inhibitor, single point]
CCOC(=O)c1c(NC(=O)CN2CCN(C(=O)c3ccco3)CC2)sc(C)c1C	inactive
Nc1nonc1C(=O)N/N=C/c1ccc([N+](=O)[O-])o1	inactive
O=[N+]([O-])c1ccc2c(c1)ncn2CCc1ccccc1	inconclusive [inhibitor, full curve, poor fit]
N#Cc1ccc(-c2ccco2)nc1SCc1ccccc1	inactive
O=C(Cc1ccccc1[N+](=O)[O-])NCc1ccc(Cl)cc1	inconclusive [inhibitor, full curve]
CCc1cccc(NC(=O)CSc2nnc(Cc3ccc(OC)cc3)c(=O)[nH]2)c1	inconclusive [inhibitor, full curve, poor fit]
CNC[C@@H](Cc1ccccc1)NC[C@@H](CC1CCCCC1)NCCCc1ccccc1	inconclusive [inhibitor, single point]
O=C1NC(c2ccccc2)=C(c2nc3ccccc3s2)C(c2ccccc2)N1 (stereo unspecified)	inconclusive [inhibitor, full curve, poor fit]
CCOc1ccc(NC(=O)CN(C)C(=O)CSCc2c(C)noc2C)cc1OCC	inconclusive [inhibitor, partial curve, poor fit]
O=S(=O)(c1ccccc1)N1CCN(Cc2ccccc2C(F)(F)F)CC1	inconclusive [inhibitor, single point]
Cc1ccc(-n2ncc3c(NCc4ccco4)ncnc32)c(C)c1	inconclusive [inhibitor, full curve, poor fit]
O=C(OCC#CCSc1nnc(-c2cccc3ccccc23)o1)c1cc2ccccc2o1	inconclusive [inhibitor, full curve, poor fit]
C[C@@H](CSc1ccccc1)CN1CC[C@H](C(C)(C)C)CCC1=O	inconclusive [inhibitor, full curve, poor fit]
COc1ccc(/[N+]([O-])=C/c2ccco2)cc1	inactive
Cc1cccc(NC(=O)/C(C#N)=C/c2ccco2)c1	inactive
OCC1CCN(Cc2cn(Cc3ccccc3)nc2-c2cc3ccccc3o2)CC1	inconclusive [inhibitor, full curve, poor fit]
O=C(CNC(=S)N(CCCN1CCOCC1)Cc1cccs1)N1CCCCCC1	inconclusive [inhibitor, full curve, poor fit]
C(=C/c1nccc2c1[nH]c1ccccc12)/c1ccc2c(c1)OCO2	inactive
O=C(CC(=O)NCc1cccnc1)NCc1cccnc1	inactive
CCC(CO)n1c(SCc2cc([N+](=O)[O-])cc3c2OCOC3)nc2ccccc2c1=O (stereo unspecified)	inconclusive [inhibitor, partial curve]
CC(C)(CCC(=S)N1CCOCC1)C1CCCCC1	inconclusive [inhibitor, full curve, poor fit]

SMILES	Potency
O=C(Nc1cccc(Br)c1)N1CCN2CCCCC2C1 (stereo unspecified)	inactive
C=CCn1c(SCC(=O)Nc2cccc(C(=O)OC)c2)nnc1C(C)NC(=O)c1cccs1 (stereo unspecified)	inconclusive [inhibitor, full curve, poor fit]
N#Cc1cccc(NC(=O)CN2NS(=O)(=O)c3ccccc3C2=O)c1	inconclusive [inhibitor, single point]
Cc1ccc(S(=O)(=O)N2CCC(=O)N(C(COCc3ccc(Cl)cc3)C(C)C)CC2)cc1 (stereo unspecified)	inconclusive [inhibitor, partial curve]
CCN(c1ccccc1)S(=O)(=O)c1ccc(OC)c(NC(=O)C2=NN(c3ccccc3)C(=O)CC2)c1	inactive
Cc1ccc(CC(=O)N(C)CC(=O)N(CC(C)C)c2c(N)n(CC(C)C)c(=O)[nH]c2=O)cc1C	inconclusive [inhibitor, partial curve, poor fit]
c1cnc2ccc(-c3ccc4ncccc4c3)cc2c1	inconclusive [inhibitor, full curve, poor fit]
COc1ccc(Cl)cc1NC(=O)CC1S/C(=N/N=C2CCCCCC2)NC1=O (stereo unspecified)	inactive
CC(C)(O)C(=O)NN(Cc1ccccc1)c1ccccc1	inconclusive [inhibitor, partial curve]
CCCc1nc2ccccc2c(=O)n1NC(=O)c1c(O)c2ccccc2[nH]c1=O	inconclusive [inhibitor, full curve]
CSc1nc(N)c(C#N)c(-c2ccc(Cl)cc2)c1C#N	inconclusive [inhibitor, partial curve, poor fit]
CCC(C)NC(=O)COc1ccc(S(=O)(=O)N2CCOCC2)cc1 (stereo unspecified)	inconclusive [inhibitor, full curve]
N#CC1=C(N)Oc2c(ccc3ccccc23)C1c1ccsc1 (stereo unspecified)	inactive
CCOc1ccc(NC(=O)CCc2c(C)nc3cc(-c4ccccc4OC)nn3c2C)cc1	inconclusive [inhibitor, partial curve]
CC1(C)Cc2ccccc2-c2n[nH]c(=S)n21	inactive
C/C(=N\NS(=O)(=O)c1ccc(C)cc1)c1cccs1	inconclusive [inhibitor, full curve, poor fit]
O=S(=O)(NCC(c1ccc2c(c1)OCO2)N1CCN(c2ccccc2)CC1)c1ccccc1 (stereo unspecified)	inconclusive [inhibitor, full curve, poor fit]
COc1ccc2nc(N3C(=O)/C(=C/c4ccc(Cl)cc4)NC3=S)sc2c1	inconclusive [inhibitor, partial curve, poor fit]
CCOc1ccc(NC(=O)c2ccc3c(c2)OCCO3)cc1S(=O)(=O)N(CC)CC	inactive
Nc1c(C(=O)NCc2cccs2)nnn1CC(=O)Nc1cccc(F)c1	inactive
CCCN1C(=O)c2cc(C(=O)NC3CCCCCC3)ccc2C1O (stereo unspecified)	inconclusive [inhibitor, partial curve]
CCOc1ccc(C2NC(=O)c3n[nH]c(C)c32)cc1 (stereo unspecified)	inconclusive [inhibitor, full curve, poor fit]
